Laboratory results: the supplement of paper PMC4604168 (melanoma cell lines)
The other results are listed elsewhere or left out. Repeats are few or missing, and single values can be far off.

Columns and labels:
Assay in all cases: cell count relative to DMSO control; melanoma cells; higher = more viable cells
Conditions in all cases: library dose: low library concentration; 72 h
WM115 = test system: WM115
WM1716 = test system: WM1716
WM1745 = test system: WM1745
WM3526 = test system: WM3526
WM3619 = test system: WM3619
WM451Lu = test system: WM451Lu
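Note: cell number obtained by counting DAPI-stained nuclei in high-throughput microscope images with image analysis software, screen run in 1,536-well plates.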

Row | SMILES | cell count (WM115) | cell count (WM1716) | cell count (WM1745) | cell count (WM3526) | cell count (WM3619) | cell count (WM451Lu)
1 | O=C(CCCCCCC(=O)Nc1ccccc1)NO [vorinostat] + Cn1cncc1[C@@](N)(c1ccc(Cl)cc1)c1ccc2c(c1)c(-c1cccc(Cl)c1)cc(=O)n2C [tipifarnib] (first compound 0.08 µM, partner dose 0.01 µM) | 78.5% | 76.6% | 93.5% | 70.3% | 86.9% | 83.3%
2 | OCc1c[nH]c2ccccc12 [Indole-3-carbinol] + O=C(CCCCCCC(=O)Nc1ccccc1)NO [vorinostat] (first compound 0.8 µM, partner dose 0.08 µM) | 98.6% | 100% | 97.4% | 152% | 85% | 92.8%
3 | C#Cc1cccc(Nc2ncnc3cc(OCCOC)c(OCCOC)cc23)c1 [erlotinib] + COc1cc2c(Oc3ccc4[nH]c(C)cc4c3F)ncnc2cc1OCCCN1CCCC1 [cediranib] (first compound 0.8 µM, partner dose 0.4 µM) | 102% | 105% | 85% | 93.5% | 103% | 105%
4 | Cn1c(Nc2ccc(C(F)(F)F)cc2)nc2cc(Oc3ccnc(-c4ncc(C(F)(F)F)[nH]4)c3)ccc21 + CCc1ccc(CCOc2ccc(CC3SC(=O)NC3=O)cc2)nc1 [pioglitazone] (first compound 0.08 µM, partner dose 2 µM) | 60.9% | 78.3% | 65.8% | 65.5% | 81.1% | 103%
5 | Clc1ccc(Nc2nnc(Cc3ccncc3)c3ccccc23)cc1 [vatalanib] + CN(NC(=O)CC(=O)NN(C)C(=S)c1ccccc1)C(=S)c1ccccc1 [STA4783] (first compound 2 µM, partner dose 0.006 µM) | 94.4% | 98.3% | 92.4% | 100% | 86.2% | 94.1%
6 | Clc1ccc(Nc2nnc(Cc3ccncc3)c3ccccc23)cc1 [vatalanib] + c1cc(-c2cnn3cc(-c4ccc(OCCN5CCCCC5)cc4)cnc23)ccn1 [Dorsomorphin] (first compound 2 µM, partner dose 0.4 µM) | 82% | 87.3% | 77% | 95% | 111% | 91.3%
7 | O=C(CCCCCCC(=O)Nc1ccccc1)NO [vorinostat] + C=CCn1c(=O)c2cnc(Nc3ccc(N4CCN(C)CC4)cc3)nc2n1-c1cccc(C(C)(C)O)n1 [MK1775] (first compound 0.08 µM, partner dose 0.02 µM) | 84.6% | 113% | 88.8% | 95.5% | 97% | 83%
8 | COCC[n+]1c2c(n(Cc3cnccn3)c1C)C(=O)c1ccccc1C2=O + Cc1cc(N2CCOCC2)cc2[nH]c(-c3c(NC[C@@H](O)c4cccc(Cl)c4)cc[nH]c3=O)nc12 [BMS536924] (first compound 0.0004 µM, partner dose 0.2 µM) | 97.7% | 88.3% | 75.4% | 79.6% | 98% | 58.7%
9 | C#Cc1cccc(Nc2ncnc3cc(OCCOC)c(OCCOC)cc23)c1 [erlotinib] + Oc1nc(-c2ccc(C(F)(F)F)cc2)nc2c1CSCC2 [XAV939] (first compound 0.8 µM, partner dose 2 µM) | 83.9% | 56.2% | 74.6% | 96.2% | 111% | 93%
10 | Cn1c(Nc2ccc(C(F)(F)F)cc2)nc2cc(Oc3ccnc(-c4ncc(C(F)(F)F)[nH]4)c3)ccc21 + CC1(C)NC(=O)N(c2ccc([N+](=O)[O-])c(C(F)(F)F)c2)C1=O [nilutamide] (first compound 0.08 µM, partner dose 1 µM) | 52.5% | 68.6% | 53.7% | 50.6% | 69.2% | 91.1%
11 | OCc1c[nH]c2ccccc12 [Indole-3-carbinol] + Cc1cc(N2CCOCC2)cc2[nH]c(-c3c(NC[C@@H](O)c4cccc(Cl)c4)cc[nH]c3=O)nc12 [BMS536924] (first compound 0.8 µM, partner dose 0.2 µM) | 102% | 120% | 93.7% | 75.4% | 171% | 98.8%
12 | COCC[n+]1c2c(n(Cc3cnccn3)c1C)C(=O)c1ccccc1C2=O + O=C(CCCCCCC(=O)Nc1ccccc1)NO [vorinostat] (first compound 0.0004 µM, partner dose 0.08 µM) | 96.2% | 104% | 97.1% | 103% | 106% | 66.3%
13 | Clc1ccc(Nc2nnc(Cc3ccncc3)c3ccccc23)cc1 [vatalanib] + COCC[n+]1c2c(n(Cc3cnccn3)c1C)C(=O)c1ccccc1C2=O [YM155] (first compound 2 µM, partner dose 0.0004 µM) | 98.9% | 90.1% | 89% | 118% | 92.4% | 88.3%
14 | C#Cc1cccc(Nc2ncnc3cc(OCCOC)c(OCCOC)cc23)c1 [erlotinib] + N#Cc1c(O)c2c(-c3ccc(-c4ccccc4O)cc3)csc2[nH]c1=O [A769662] (first compound 0.8 µM, partner dose 2 µM) | 91.4% | 98.4% | 88.2% | 97% | 129% | 111%
15 | OCc1c[nH]c2ccccc12 [Indole-3-carbinol] + COc1cc(Nc2ncc(F)c(Nc3ccc4c(n3)NC(=O)C(C)(C)O4)n2)cc(OC)c1OC [Tamatinib] (first compound 0.8 µM, partner dose 0.4 µM) | 90.8% | 93.7% | 69.1% | 106% | 95.9% | 86%
16 | OCc1c[nH]c2ccccc12 [Indole-3-carbinol] + O=C(Nc1ccccc1)c1cc([N+](=O)[O-])ccc1Cl [GW9662] (first compound 0.8 µM, partner dose 2 µM) | 95.9% | 111% | 86% | 118% | 71.6% | 92.9%
17 | O=C(CCCCCCC(=O)Nc1ccccc1)NO [vorinostat] + Cc1cc([N+](=O)[O-])ccc1NS(=O)(=O)c1cc(Cl)ccc1Cl [FH535] (first compound 0.08 µM, partner dose 1 µM) | 91.3% | 114% | 98.5% | 92.7% | 91% | 101%
18 | OCc1c[nH]c2ccccc12 [Indole-3-carbinol] + O=C(Nc1cccc(Cl)c1)Nc1ncc(CCNc2ncnc3ccsc23)s1 [SNS314] (first compound 0.8 µM, partner dose 0.0008 µM) | 97.5% | 96.8% | 127% | 115% | 141% | 99.7%
19 | OCc1c[nH]c2ccccc12 [Indole-3-carbinol] + CC1(C)NC(=O)N(c2ccc([N+](=O)[O-])c(C(F)(F)F)c2)C1=O [nilutamide] (first compound 0.8 µM, partner dose 1 µM) | 105% | 105% | 77.1% | 93.1% | 92.8% | 127%
20 | OCc1c[nH]c2ccccc12 [Indole-3-carbinol] + c1cc(-c2cnn3cc(-c4ccc(OCCN5CCCCC5)cc4)cnc23)ccn1 [Dorsomorphin] (first compound 0.8 µM, partner dose 0.4 µM) | 105% | 98.5% | 93.4% | 108% | 98.3% | 95%
21 | C#Cc1cccc(Nc2ncnc3cc(OCCOC)c(OCCOC)cc23)c1 [erlotinib] + C[C@@H]1CCN(C(=O)CC#N)C[C@@H]1N(C)c1ncnc2[nH]ccc12 [CP690550] (first compound 0.8 µM, partner dose 1 µM) | 93.9% | 98.8% | 82.7% | 95.8% | 103% | 108%
22 | Nc1cccc2c1CN(C1CCC(=O)NC1=O)C2=O (configuration not stated) [lenalidomide] + CCc1ccc(CCOc2ccc(CC3SC(=O)NC3=O)cc2)nc1 [pioglitazone] (first compound 1 µM, partner dose 2 µM) | 99.4% | 96.8% | 90.9% | 87.4% | 93.7% | 83.9%
23 | OCc1c[nH]c2ccccc12 [Indole-3-carbinol] + CN(NC(=O)CC(=O)NN(C)C(=S)c1ccccc1)C(=S)c1ccccc1 [STA4783] (first compound 0.8 µM, partner dose 0.006 µM) | 86.4% | 76% | 50.2% | 75.1% | 65.8% | 108%
24 | Nc1cccc2c1CN(C1CCC(=O)NC1=O)C2=O (configuration not stated) [lenalidomide] + O=C(CCCCCCC(=O)Nc1ccccc1)NO [vorinostat] (first compound 1 µM, partner dose 0.08 µM) | 105% | 102% | 109% | 80.4% | 96.7% | 87%
25 | Clc1ccc(Nc2nnc(Cc3ccncc3)c3ccccc23)cc1 [vatalanib] + Cn1c(Nc2ccc(C(F)(F)F)cc2)nc2cc(Oc3ccnc(-c4ncc(C(F)(F)F)[nH]4)c3)ccc21 [CHIR265] (first compound 2 µM, partner dose 0.08 µM) | 65.2% | 80.5% | 69.8% | 67.2% | 73.6% | 83.1%
26 | C#Cc1cccc(Nc2ncnc3cc(OCCOC)c(OCCOC)cc23)c1 [erlotinib] + O=C(O)C(=O)Nc1sc2c(c1C(=O)O)CCNC2 [TCS401] (first compound 0.8 µM, partner dose 1.66667 µM) | 84.9% | 94.3% | 74.2% | 86.3% | 102% | 118%
27 | Nc1cccc2c1CN(C1CCC(=O)NC1=O)C2=O (configuration not stated) [lenalidomide] + Cc1cc([N+](=O)[O-])ccc1NS(=O)(=O)c1cc(Cl)ccc1Cl [FH535] (first compound 1 µM, partner dose 1 µM) | 88.2% | 97.6% | 89.8% | 96.4% | 108% | 125%
